About 12,000 (3.5%) of roughly 340,000 compounds were called active. The inconclusive results got no clear call from the source; some entries with a clear call stand among them for comparison. Calls follow the shape of the dose curve; as a rule, active = well fitted inhibition curve with a large enough effect; inconclusive = small, poorly fitted or top-dose-only effect, or another doubt; inactive = no such curve, though single readings can be large or run the other way. Potencies of inconclusive entries are left out as doubtful fits.
assay: qHTS Assay for Inhibitors of Hepatitis C Virus (HCV); conditions: Huh7.5.1 HCVcc-Cre (HCVcc is cell-culture hepatitis C virus) infection, luciferase reporter, 44 h; series mostly up to 41.8 µM
Procedure, shortened: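 Whole-lifecycle infectious HCVcc-Cre system; cells 1,000/well, compound then virus (~0.5 moi) added 4 h after plating, 44 h culture. Luciferase read 15 sec following 15 min substrate incubation, room temp.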
Potency is read from the fitted curve at half-maximal effect; tags tell the direction and shape of the fitted curve.

| Structure (SMILES) | Potency |
| --- | --- |
| Cc1ccc(C(=O)NCC(=O)NC2CC2)cc1 | inactive |
| O=C(O)Cn1cnc2scc(-c3cccs3)c2c1=O | inconclusive [inhibitor, single point] |
| Cc1ccc2nc(SCc3cccc([N+](=O)[O-])c3)nc(C)c2c1 | inconclusive [inhibitor, single point] |
| CCCNC(=O)c1ccc(N2CCC3(CC2)CC(c2ccccc2)=NO3)c(NC(=O)c2ccc(Br)cc2)c1 | inconclusive [inhibitor, single point] |
| CC(C)CC(=O)NC(=S)Nc1cccc2nsnc12 | inconclusive [inhibitor, partial curve] |
| Cc1ccc(-c2csc(NC(=O)CN3CC(C)OC(C)C3)n2)cc1 (centres undefined) | inconclusive [inhibitor, single point] |
| Clc1ccc(OCCSc2ncccn2)c(Br)c1 | active: 11.2 µM |
| C=CCN=C1S/C(=C\c2ccc(N(C)C)cc2)C(=O)N1CC=C | inconclusive [inhibitor, partial curve, poor fit] |
| O=C(CCSc1ccc(Cl)cc1)N1CCN(c2ccc(O)cc2)CC1 | inconclusive [inhibitor, single point] |
| O=C1NC[C@@H](c2ccccc2)OC(=O)[C@@H](Cc2ccc(F)cc2)C/C=C\C[C@@H]1CC(=O)N(CCO)Cc1ccccc1 | inconclusive [inhibitor, partial curve, poor fit] |
| O=C(O)c1cccc(N2C(=O)c3ccc(C(=O)c4cccc([N+](=O)[O-])c4)cc3C2=O)c1 | inactive |
| COCCNC(=O)c1cc(-c2ccccc2C)n(CC2CC(c3cccc([N+](=O)[O-])c3)=NO2)n1 (centres undefined) | inconclusive [inhibitor, single point] |
| C=CCN(CC=C)C(=S)NC(=O)c1ccc(OC)cc1 | inactive |
| Cc1csc(SCC(=O)NCc2ccccc2Cl)n1 | inactive |
| CS(=O)(=O)c1sc2nc(-c3ccccc3)cc(-c3ccccc3)c2c1N | inactive |
| CCC(C(=O)NC1CCCCCC1)n1nc(C)c2c(C)n(-c3ccccc3)nc2c1=O (centres undefined) | inconclusive [inhibitor, single point] |
| Cc1cc2ncn(/N=C/c3ccc([N+](=O)[O-])s3)c2cc1C | active: 11.2 µM |
| Cc1ccccc1Cn1cnc2c(cnn2C(C)(C)C)c1=O | inconclusive [inhibitor, single point] |
| COc1cc(Cl)c(C)cc1NC(=O)CSc1nnc(-c2cccnc2)n1Cc1ccco1 | inconclusive [inhibitor, partial curve] |
| Cc1cc(C(=O)Nc2nc3ccc(S(C)(=O)=O)cc3s2)c(C)o1 | inconclusive [inhibitor, partial curve] |
| CN(Cc1cn(C)nc1-c1cccc(Cl)c1)C1CCOCC1 | inactive |
| COc1ccc(C(=O)Nc2cc3c4c(c2)C(C)C(=O)N4CCC3)cc1 (centres undefined) | inconclusive [inhibitor, single point] |
| CC(=O)N1CCc2cc(S(=O)(=O)CCC(=O)NCCc3ccc(Cl)cc3)ccc21 | inactive |

| Structure (SMILES) | Potency |
| --- | --- |
| CSc1cccc(NC(=O)C2CCN(S(=O)(=O)c3ccc4c(c3)NC(=O)CO4)CC2)c1 | inconclusive [inhibitor, single point] |
| CCOc1cc(/C=N/NC(=O)Cc2ccc(C(F)(F)F)cc2[N+](=O)[O-])c(Br)cc1OC | inconclusive [inhibitor, partial curve] |
| COC(=O)c1nn(-c2ccccc2)c2nnc(Cc3ccc(C)cc3)c(=O)n12 | inactive |
| O=C(NCC(O)c1ccc([N+](=O)[O-])cc1)c1cccc(S(=O)(=O)N2CCOCC2)c1 (centres undefined) | inconclusive [inhibitor, partial curve] |
| CC(C)C(c1nnnn1Cc1ccco1)N1CCC(C(N)=O)CC1 (centres undefined) | inactive |
| Cc1cccc(NC(=O)N2CCC(C(=O)c3ccc(F)cc3)CC2)c1 | inconclusive [inhibitor, single point] |
| Nc1c(C(=O)Nc2ccc(Br)cc2)sc2nc(-c3ccco3)ccc12 | inconclusive [inhibitor, partial curve] |
| COc1cc(N)c(Cl)cc1C(=O)OCC(=O)Nc1ccc(N2CCOCC2)cc1 | inactive |
| CCCCN1CC(COCc2ccccc2)Oc2cccc(Oc3ccccc3)c2S1(=O)=O (centres undefined) | active: 2.51 µM |
| COc1ccc(NC(=O)c2cc(-c3ccccc3)on2)cc1OC | inactive |
| CCc1nnc(NC(=O)CSc2nccn2-c2ccccc2)s1 | inactive |
| CCn1cc(C2=NOC(C(=O)Nc3ccc4c(c3)OCO4)C2)c(C)n1 (centres undefined) | inconclusive [inhibitor, single point] |
| CC1C(=O)N2CCCc3cc(S(=O)(=O)Nc4ccccc4F)cc1c32 (centres undefined) | inconclusive [inhibitor, single point] |
| O=C(CN1C(=O)NC2(CCCC2)C1=O)NCCc1ccc(F)cc1 | inactive |
| COc1ccc(NC(=O)CNC(=O)Cn2cnc3sc4c(c3c2=O)CCCC4)cc1OC | inactive |
| CCOC(=O)c1ccc(S(=O)(=O)N2CCN(C3CC(=O)N(c4ccccc4C(F)(F)F)C3=O)CC2)cc1 (centres undefined) | inactive |
| COC(=O)c1cccc(NC(=S)Nc2ccc(Cl)c(Cl)c2)c1 | inconclusive [inhibitor, single point] |
| Cc1ccccc1NC(=O)CCc1c(C)nn(-c2ccc(N3CCOCC3)nn2)c1C | inactive |
| CCCCn1c(NC(=O)c2ccco2)c(C(=O)OCC)c2nc3ccccc3nc21 | inactive |
| O=C(NNC(=O)c1cccc2ccccc12)c1ccc2c(c1)OCO2 | inactive |
| COc1ccc(NC(=O)N[C@@H](Cc2ccccc2)C(=O)NN)cc1 | inconclusive [inhibitor, single point] |
| Cc1cc(NC(=O)CCC(=O)N(Cc2ccco2)C(C(=O)NC2CCCC2)c2ccccc2)no1 (centres undefined) | inactive |
| Cc1cc2ccccc2c(=O)n1CC(=O)NCC(=O)N(C)C1CCCCC1 | inconclusive [inhibitor, partial curve] |

| Structure (SMILES) | Potency |
| --- | --- |
| COc1ccc(C(=O)Nc2cccc(NC(=O)c3ccc(OC)cc3OC)n2)c(OC)c1 | inconclusive [inhibitor, single point] |
| COc1ccc(C(=O)CCN2CCc3cc(OC)c(OC)cc3C2)cc1 | inconclusive [inhibitor, single point] |
| O=C(NCC(c1ccco1)N1CCc2ccccc21)C(=O)Nc1ccccc1F (centres undefined) | inconclusive [inhibitor, full curve] |
| CCC(c1nnnn1Cc1ccco1)N(CCc1ccccc1)Cc1cc2ccc(OC)cc2[nH]c1=O (centres undefined) | inconclusive [inhibitor, single point] |
| O=C(NNC(=O)c1ccc(SCC2CCCO2)c([N+](=O)[O-])c1)c1ccc(Cl)c([N+](=O)[O-])c1 (centres undefined) | inconclusive [inhibitor, single point] |
| COc1ccc(OCCN2C(=O)c3ccccc3C2=O)cc1 | inactive |
| COc1ccc(-c2nc(CS(=O)CC(=O)NCc3ccc(Cl)cc3)c(C)o2)cc1OC (centres undefined) | inconclusive [inhibitor, full curve] |
| COc1ccc(C(=O)N/N=C/c2c(C)nn(-c3ccccc3)c2OC)cc1 | inconclusive [inhibitor, partial curve] |
| Cc1ccc(C)c(Cn2c(CN(C)Cc3ccccc3)nc3c2c(=O)n(C)c(=O)n3C)c1 | inconclusive [inhibitor, single point] |
| O=C(NCc1ccco1)c1cc(-c2ccccn2)nc2ccccc12 | inconclusive [inhibitor, single point] |
| CCOC(=O)CSC1=C(C#N)C(c2ccccc2)C(C(C)=O)=C(C)N1 (centres undefined) | inconclusive [inhibitor, single point] |
| CCOc1ccc(CNC(=O)C2CCN(c3nnc(C)c4c(C)n(-c5ccc(C)cc5)nc34)CC2)cc1 | active: 12.6 µM |
| CCCN(CC(=O)Nc1ccccc1OC)C(=O)Cn1[nH]c(=O)c2ccccc2c1=O | inactive |
| CC1=C(C(=O)OCc2ccccc2)C(c2ccccc2)NC(=O)N1 (centres undefined) | inconclusive [inhibitor, single point] |
| O=C(NCCc1ccccc1Cl)C1CCN(S(=O)(=O)c2cccs2)CC1 | inconclusive [inhibitor, single point] |
| O=C(c1cc2cc(Cl)ccc2[nH]1)N1CCC2(CC1)OCCO2 | inconclusive [inhibitor, single point] |
| OC1CCCCC1N1CCC(c2ccccc2)CC1 (centres undefined) | inconclusive [inhibitor, full curve, poor fit] |
| CC(C)n1c(SCC(=O)Nc2nc3ccccc3s2)nc2c1c(=O)n(C)c(=O)n2C | inconclusive [inhibitor, partial curve] |
| C=CCn1c(SCc2csc(-c3ccc(Cl)cc3)n2)nnc1-c1ccccc1OC | inconclusive [inhibitor, single point] |
| Cc1cc(C)c(C#N)c(N2CCN(Cc3ccc4c(c3)OCO4)CC2)n1 | inconclusive [inhibitor, single point] |
| CC(=O)c1c(C)[nH]c(C(=O)OCC(=O)NCCc2ccc(F)cc2)c1C | inconclusive [inhibitor, single point] |
| CN(Cc1ccccc1F)c1nc(-c2cccnc2)nc2ccccc12 | inconclusive [inhibitor, partial curve, poor fit] |
| CCOC(=O)CSc1nc2c(sc3ccc([N+](=O)[O-])cc32)c(=O)n1Cc1ccco1 | active: 6.31 µM |

— PubChem BioAssay AID651820 (National Center for Advancing Translational Sciences (NCATS), 2012)
